Test results as given in PubChem BioAssay (NCI).
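All cell lines were grown in 96-well plates and treated with compound for 48 hours. Here, GI50 denotes the concentration required for 50% inhibition of growth. The concentration for full growth arrest is given as TGI.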

System: NCI-H322M lung
Assay: NCI anticancer screen, dose series, 48 h

SMILES: CN(Cc1ccccc1)S(=O)(=O)/N=C1\NC(=O)NC1=C(Cl)Cl
- GI50: 2090 nM
- TGI: 5.3 µM
